# Assay results from the BET-seq Pho4 binding data (Le et al. 2018).
# Some of the results follow. These are noisy estimates, calculated here from bound and input reads.
# Molecular target: T1, Pho4 (S. cerevisiae) (UniProt P07270)
# T1 sequence: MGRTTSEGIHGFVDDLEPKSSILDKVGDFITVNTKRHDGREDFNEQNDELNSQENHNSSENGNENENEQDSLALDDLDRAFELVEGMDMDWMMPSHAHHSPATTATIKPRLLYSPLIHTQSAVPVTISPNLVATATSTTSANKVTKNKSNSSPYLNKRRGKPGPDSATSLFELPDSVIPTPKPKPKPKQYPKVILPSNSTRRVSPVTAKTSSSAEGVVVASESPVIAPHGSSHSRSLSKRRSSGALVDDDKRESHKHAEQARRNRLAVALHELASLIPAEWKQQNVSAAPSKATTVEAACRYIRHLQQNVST
# Assay: relative binding free energy (BET-seq); higher = weaker binding
# Conditions: reference: library average
row,Sequence,relative binding free energy [kcal/mol]
1,TGCGTCACGTGGATGT,0.08
2,GCTGTCACGTGTCGTT,0.18
3,CGGATCACGTGGGTAA,0.07
4,TTTCACACGTGTATTG,0.05
5,AGTTCCACGTGAAGTG,0.37
6,CTGGTCACGTGAGCGT,0.27
7,TGGGTCACGTGTGTCA,0.08
8,TTGATCACGTGTATGG,0.16
9,GGTGTCACGTGACTTA,0.17
10,AGTTACACGTGGGATG,0.17
11,TTTGCCACGTGCTGTG,-0.15
12,TGCGTCACGTGGGCCG,-0.11
13,CAGCGCACGTGGTTGT,-0.07
14,ATAATCACGTGTGATA,0.31
15,GTGATCACGTGAGCTG,0.34
16,TTCTTCACGTGTTAGT,0.27
17,CTTTACACGTGGTCGG,0
18,TGTTACACGTGCTTGT,0.06
19,ATCTGCACGTGTATTG,-0.06
20,GGAGGCACGTGGTGCC,-0.04
21,GTTCTCACGTGGCTGG,0.2
22,GGCTTCACGTGATGTT,0.52
23,CTGATCACGTGGTGGT,0.19
24,CATTGCACGTGATGAG,0.12
25,AGTGTCACGTGTTTCA,0.12
26,TAAGCCACGTGTGTTA,0.05

row,Sequence,relative binding free energy [kcal/mol]
1,CTGGTCACGTGTGAAT,0.19
2,GGGTGCACGTGCTGTA,-0.11
3,GGTTACACGTGAGTAT,0.33
4,CTGGGCACGTGCGTAG,-0.12
5,TACGCCACGTGGGGGG,-0.27
6,GAGGTCACGTGGTTAT,0.12
7,CTGGTCACGTGAGAGT,0.45
8,TTTTTCACGTGCGGGA,0.3
9,AAGAGCACGTGGGGGA,-0.22
10,TTACTCACGTGGGAAA,0.36
11,AAGTTCACGTGGAGTC,0.39
12,GATGGCACGTGGTGCG,-0.06
13,GAGTGCACGTGGTCAG,-0.16
14,GGGTTCACGTGTTACG,0.36
15,GGGGGCACGTGACATG,-0.12
16,GGTTTCACGTGTGACA,0.27
17,GAGTTCACGTGCGTCG,0.21
18,CAGGACACGTGGAGGG,0
19,AAGCGCACGTGAAGGG,0.05
20,GTTTGCACGTGGTGAC,0.02
21,GTGATCACGTGTCGTT,0.03
22,CGTTGCACGTGTGGGG,0.01
23,AGTTTCACGTGGTGAC,0.23
24,AACGTCACGTGTAAGG,0.13
25,CTGGTCACGTGGTGTT,0.07
26,TTGGGCACGTGATGGG,0.08

row,Sequence,relative binding free energy [kcal/mol]
1,TCATGCACGTGGATTA,0.11
2,TCTTTCACGTGATTTT,0.38
3,GCATACACGTGGGTGT,-0.12
4,GATTTCACGTGAAGAT,0.39
5,TAGTTCACGTGTGCGA,0.21
6,TATGGCACGTGTGCGT,-0.13
7,ACGGTCACGTGGAGAG,0.2
8,TTTGGCACGTGCTTAA,-0.2
9,GTTTGCACGTGTTACA,0.06
10,CTGGTCACGTGGTAAT,0.07
11,CATTACACGTGTGGTT,0.09
12,GGGGTCACGTGGGTTG,0.06
13,AGGTTCACGTGTACGG,0.37
14,ACGTGCACGTGGGTTG,-0.09
15,CTGAGCACGTGGGAGG,-0.28
16,ACGGGCACGTGGGTCT,-0.15
17,ATGATCACGTGGGCGT,-0.02
18,AGGGCCACGTGGGTGG,-0.34
19,TCGGGCACGTGTAATT,0.05
20,GAGATCACGTGGAATG,0.35
21,TAGGACACGTGGGGTA,-0.05
22,GGTTTCACGTGTGATT,0.41
23,TTTGGCACGTGTGGGT,0.11
24,TTCGGCACGTGAGGTA,0.16
25,GTGAGCACGTGTTGTG,-0.04
26,TTTGTCACGTGCGGTT,0.16

row,Sequence,relative binding free energy [kcal/mol]
1,TTGATCACGTGGAGAT,0.17
2,TCTGACACGTGGGGCA,-0.02
3,GGGAGCACGTGATTTA,0.11
4,GTAATCACGTGGGGGA,-0.06
5,AAGAGCACGTGTATGT,0
6,TTTAGCACGTGACTTA,0.06
7,ATTGTCACGTGAAGGC,0.3
8,TATTTCACGTGGTTAG,0.17
9,TTGTTCACGTGGATAT,0.2
10,GTAGACACGTGGGGTC,-0.14
11,GTTCTCACGTGCTGGT,0.21
12,TTAGTCACGTGAGGTG,0.23
13,TGTTACACGTGGTCCG,0.08
14,GGCTACACGTGAGTGT,0.34
15,AATAGCACGTGGGTGT,-0.15
16,TATACCACGTGTTTTG,-0.03
17,GAGTGCACGTGAGATG,0.21
18,TGGGACACGTGTTTAG,0.01
19,ATTTACACGTGGTTAA,0.03
20,TTGCGCACGTGGTGCA,-0.18
21,TGTAACACGTGGATAG,0.05
22,GGGTTCACGTGGAAGG,0.24
23,GTGAGCACGTGTGAAG,0.02
24,GATGACACGTGTATTA,0.18
25,AGGGTCACGTGATGTA,0.3
26,TAAGGCACGTGAAAGT,0.08

row,Sequence,relative binding free energy [kcal/mol]
1,TGCAGCACGTGCGTGT,-0.07
2,TATTTCACGTGCTGTA,0.28
3,GATTCCACGTGGTTTG,0.06
4,TGGAACACGTGCGTTT,0.03
5,AGGATCACGTGGGGTA,0
6,GTCGGCACGTGATGCT,0.15
7,GTGTTCACGTGTTTTT,0.32
8,TAGATCACGTGCTTTG,0.19
9,GGATACACGTGATGGG,0.33
10,TCGCTCACGTGGTGGT,0.1
11,TGAAACACGTGAGTTT,0.2
12,TGCAACACGTGTGTGT,0.08
13,ATTCACACGTGTTTTT,0.01
14,AATCTCACGTGTTGTA,0.1
15,TATTACACGTGAGTTT,0.23
16,ATGTTCACGTGATACG,0.24
17,GTGGGCACGTGTACGG,-0.04
18,TTGACCACGTGTTGGG,-0.05
19,AAGGCCACGTGTGCGT,-0.1
20,GTAGGCACGTGGGCAG,-0.2
21,TTAGTCACGTGGGTTC,0.03
22,ATGTTCACGTGTTGGC,0.18
23,CAAGTCACGTGGGTTT,0.09
24,GTTGGCACGTGGTGCA,-0.28
25,AGTATCACGTGCTGAG,0.16
26,GGAGGCACGTGGCGCG,-0.22

row,Sequence,relative binding free energy [kcal/mol]
1,AACTTCACGTGATTGT,0.32
2,TGTGGCACGTGATGGC,-0.05
3,AGGGTCACGTGAGCAG,0.07
4,TTTAGCACGTGAGGCA,0.21
5,GTAAACACGTGAGGGG,0.24
6,GGGAGCACGTGTGAGC,0.2
7,CTTGGCACGTGCTGAG,-0.2
8,TGGATCACGTGCGTGC,0.03
9,AAGCGCACGTGGTATG,-0.22
10,TTTAGCACGTGGGGGC,-0.12
11,GGTTACACGTGGGTAA,0.02
12,GTATACACGTGGAATG,0.14
13,CGTTACACGTGTGGTA,0.23
14,ACAGGCACGTGTGTGG,-0.05
15,TTGGCCACGTGCTGGG,-0.15
16,TGGACCACGTGTGGGT,-0.01
17,TTATACACGTGAGGGC,0.43
18,AATATCACGTGTTATG,0.02
19,TTTATCACGTGGGACA,0.15
20,TGAATCACGTGTCTTG,0.1
21,TGTCTCACGTGGGTTG,0.02
22,ATATGCACGTGGAGAG,0.07
23,GGTTCCACGTGTTGAT,0.14
24,AGTTACACGTGTTGTA,0.01
25,AGGGACACGTGGAGTA,0.02
26,GTATGCACGTGTTATC,-0.03

row,Sequence,relative binding free energy [kcal/mol]
1,TGCGTCACGTGAGAGT,0.27
2,GGGCTCACGTGAATGT,0.49
3,GATGGCACGTGAGAAG,0.12
4,CCGGGCACGTGGCAGG,-0.17
5,ATTTACACGTGGGGTA,-0.02
6,AAGTGCACGTGGAACG,0.06
7,AAGTTCACGTGCGGTG,0.36
8,TGATTCACGTGGAGGC,0.23
9,ACACTCACGTGGGTGG,0.02
10,TGCTACACGTGAGGTT,0.32
11,GAATCCACGTGGGGTG,-0.07
12,TGGGTCACGTGATGGA,0.32
13,GTCTACACGTGTGGAG,0.21
14,GCTATCACGTGAGGGA,0.39
15,GGTCGCACGTGGGCAG,-0.25
16,GTGGGCACGTGTGTAT,0.01
17,GTTAGCACGTGTCATG,-0.06
18,TTTTTCACGTGCGCTT,0.24
19,TCGCGCACGTGGTTGG,-0.14
20,GGGGTCACGTGGAGCT,0.09
21,TGGTCCACGTGAATTG,0.28
22,AGACGCACGTGGGTTT,-0.21
23,GGTTGCACGTGACGGG,0.19
24,TCGCACACGTGGTGGT,-0.01
25,GATATCACGTGTATAG,0.28
26,TTTTTCACGTGTGGTG,0.3

row,Sequence,relative binding free energy [kcal/mol]
1,CTTTACACGTGTGTAG,-0.07
2,TAGTTCACGTGTGAGC,0.33
3,CTTTTCACGTGCATTT,0.21
4,CGTGTCACGTGTGAAT,0.08
5,GTTTACACGTGGGACG,0.14
6,TGAATCACGTGCGGGT,0.19
7,CGGATCACGTGTGATT,0.33
8,TGGCGCACGTGTTTAT,-0.09
9,GGCTACACGTGAAGTG,0.39
10,GGACACACGTGGGTTG,0.01
11,TTCAGCACGTGGGTAT,-0.18
12,TGTTTCACGTGGGCAG,0.16
13,ATCATCACGTGTGTTG,0.1
14,AACATCACGTGGGTGT,0.04
15,TTGTCCACGTGGACGG,0
16,CGTGGCACGTGTGGGT,-0.12
17,GGTTGCACGTGTAAGC,0.12
18,TGGCGCACGTGTTGTG,-0.2
19,GTAAGCACGTGCAGGG,-0.12
20,TTGTTCACGTGAGCAG,0.52
21,GTTGCCACGTGTATGG,0.07
22,ATTAGCACGTGTTGGG,-0.02
23,TTCGTCACGTGAGTGT,0.21
24,TTGGGCACGTGGAATG,0
25,TTTAGCACGTGCTGGA,0.04
26,ATTTGCACGTGGTCAG,-0.03

row,Sequence,relative binding free energy [kcal/mol]
1,TTAGACACGTGTGGGG,0.09
2,GATTACACGTGAGTGT,0.24
3,TATGGCACGTGTGGCC,-0.02
4,TTATACACGTGTATCG,0.07
5,CGGAGCACGTGTCGGG,-0.07
6,AGTTACACGTGAAATG,0.29
7,GATAACACGTGGGGGA,-0.09
8,CATTGCACGTGATGTT,0.05
9,AGTCTCACGTGTATTG,0.1
10,TGGTACACGTGCATGG,0.06
11,TGGGGCACGTGGCATT,0.06
12,TCGTGCACGTGTTTTC,-0.01
13,CGGTGCACGTGATTAT,0.1
14,TCGGCCACGTGTTATG,0.1
15,TTCGGCACGTGATGGT,0.11
16,ATGAGCACGTGTTGAG,-0.03
17,AAGGTCACGTGGTTTG,0.19
18,ACAATCACGTGGTTTG,0.07
19,ATATTCACGTGCTGAT,0.32
20,GTCTGCACGTGTTGGA,0.13
21,TAAGTCACGTGAAGTT,0.26
22,GGGATCACGTGTACGT,0.09
